According to PubChem BioAssay AID1745845 (National Center for Advancing Translational Sciences (NCATS), 2022):
Where “and” joins values, the source holds several entries; their conditions need not be identical. Equal values may be shown once. In all, about 360,000 compounds went through this assay and about 2,600 (0.72%) were called active. The inconclusive results got no clear call from the source; some entries with a clear call stand among them for comparison. Calls follow the shape of the dose curve; as a rule, active = well fitted inhibition curve with a large enough effect; inconclusive = small, poorly fitted or top-dose-only effect; inactive = no such curve, though single readings can be large or run the other way. Potencies beside an inconclusive call are fits to weak or partial responses and may not hold up.
Potency is read from the fitted curve at half-maximal effect; tags tell the direction and shape of the fitted curve.

Experiment: Primary qHTS for Inhibitors of ATXN expression; also: nearly all actives have a fitted effect of over 55% in size
Conditions: HEK-293 ATXN2-luciferase reporter, luminescence, 24 h; series mostly up to 57 µM
Procedure, shortened: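 ATXN2-luciferase reporter cells (luciferase flanked by upstream and downstream ATXN2 gene portions) were treated 24 h at 37 °C with compounds at up to 57 uM. SteadyGlo luminescence gave expression; GF-AFC fluorescence gave viability.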
For `COc1cc(OC)cc(C(=O)Nn2cc(C(=O)Nc3c(F)cccc3F)c3ccccc3c2=O)c1`, the Potency was “inactive”. For `COc1ccc(NC(C)C(=O)Nc2cccc(S(=O)(=O)N3CCOCC3)c2)cc1OC` (stereo not drawn), the Potency was inconclusive: 8.91 µM [inhibitor, partial curve, poor fit]. For `COC(=O)C(=Cc1ccc(OCc2ccc([N+](=O)[O-])cc2)c(OC)c1)C(=O)OC`, the Potency was inconclusive: 39.8 µM [inhibitor, single point]. For `O=C(Cn1c(=O)n(CC(=O)NCc2ccccc2)c2ccccc21)NCc1ccccc1`, the Potency was inconclusive: 39.8 µM [inhibitor, single point]. With `COc1ccc2cc([S+]([O-])Cc3ncc(C)c(OC)c3C)nc2c1` the Potency was “inactive”. With `COc1ccc(CCNC(=O)c2ccc3c(c2)N=C(C)c2cc(C)ccc2S3)cc1OC` the Potency was inconclusive: 25.1 µM [inhibitor, single point]. With `COc1cc(NC(=O)c2cnc(N)o2)cc(C(=O)Nc2cccc(C(F)(F)F)c2)c1` the Potency was inconclusive: 31.6 µM [inhibitor, single point] and inconclusive: 28.2 µM [inhibitor, single point]. In the case of `COc1ccc(C(CNC(=O)c2ccc(S(=O)(=O)Nc3ccc(F)cc3)cc2)N(C)C)cc1` (stereo not drawn), the Potency is reported as “inactive”. With `COc1ccccc1NC(=O)Cn1nnc(-c2ccccc2NC(=O)c2cccs2)n1` the Potency was inconclusive: 31.6 µM [inhibitor, partial curve, poor fit]. With `NS(=O)(=O)c1ccc(CCN2C(=O)/C(=C\c3ccc(Cl)cc3)SC2=S)cc1` the Potency was active: 25.1 µM. With `COc1ccccc1C(=O)NCCSc1c(C)[nH]c2ccccc12` the Potency was inconclusive: 39.8 µM [inhibitor, single point]. For `CCOC(=O)C1CCN(c2ncnc3c2nnn3Cc2ccccc2Cl)CC1`, the Potency was “inactive”. With `Cc1ccccc1SCC(=O)N1CCN(c2ccc(C(F)(F)F)cn2)CC1` the Potency was inconclusive: 26.7 µM [inhibitor, partial curve, poor fit]. With `CC(C)(C)c1ccc(OCC(=O)N/N=C/c2cc(Br)ccc2OC(=O)c2ccco2)cc1` the Potency was inconclusive: 2.82 µM [inhibitor, full curve, poor fit]. For `C/C(=N\NC(=O)c1cc(C)[nH]n1)c1cccs1`, the Potency was inconclusive: 13.4 µM [inhibitor, single point]. With `CC1=CC2=NC(=O)/C(=C\c3cccn3CCOc3cccc(C)c3)C(=N)N2O1` the Potency was “inactive”. For `CC(C)C(NC(=O)Cc1ccccc1)C(=O)N1CCN(c2cccc(Cl)c2)CC1` (stereo not drawn), the Potency was inconclusive: 26.7 µM [inhibitor, single point]. With `Cc1cc(C)cc(N(CC(=O)NCc2ccco2)S(=O)(=O)c2ccccc2)c1` the Potency was “inactive”. With `Cc1cc(Nc2nc(N[C@@H](C)c3ccc(F)cc3)c(C#N)cc2F)n[nH]1` the Potency was active: 24.3 µM. With `Fc1cccc(NC(=S)NCCc2ccccc2)c1` the Potency was “inactive”. For `O=C(O)CCCCCCCCCCC1CCC(O)C1O` (stereo not drawn), the Potency was inconclusive: 7.94 µM [inhibitor, partial curve]. For `O=C1C(=O)N(C2CCNCC2)CCN1Cc1ccccc1`, the Potency was “inactive”. In the case of `CCO[C@@H]1OC(C(=O)NCc2ccccc2)=C[C@H](c2ccc(C(F)(F)F)cc2)[C@H]1CCCO`, the Potency is reported as inconclusive: 14.1 µM [inhibitor, partial curve, poor fit]. In the case of `CCOC(=O)C1=C(C)NC2=C(C(=O)OC2)C1c1ccccc1` (stereo not drawn), the Potency is reported as “inactive”. With `COc1ccc(NC(=O)Nc2ccccc2OC)cc1` the Potency was “inactive”. In the case of `Cc1cccc(/C=N\NC(=O)c2ccc(Cl)cc2)c1O`, the Potency is reported as inconclusive: 1.12 µM [inhibitor, partial curve, poor fit]. For `Cn1c(SCC(=O)Nc2cccc(Br)c2)nnc1-c1cc2ccccc2o1`, the Potency was inconclusive: 39.8 µM [inhibitor, single point]. With `Cc1cc(C)c(C(=O)Nc2ccc(Br)c(C(F)(F)F)c2)c(C)c1` the Potency was inconclusive: 39.8 µM [inhibitor, partial curve, poor fit]. For `COc1ccc2c(c1)/C(=C\c1cccc(/C=C3/C(=O)Nc4ccc(OC)cc43)n1)C(=O)N2`, the Potency was active: 3.16 µM. In the case of `Cn1nnnc1SCCCNCc1cc(Br)ccc1OCc1ccccc1F`, the Potency is reported as inconclusive: 20 µM [inhibitor, partial curve]. In the case of `O=C1OC2(c3ccccc31)c1ccccc1-c1ccccc12`, the Potency is reported as “inactive”. With `O=C(Nc1sc2c(c1C(=O)NCC1CCCO1)CCC2)c1cc(=O)c2cc(Cl)ccc2o1` (stereo not drawn) the Potency was “inactive”. With `c1ccc(-c2nnsc2-c2ccccc2)cc1` the Potency was “inactive”. For `C=CCN(CC=C)S(=O)(=O)c1ccc(C(=O)Nc2nc3c(s2)CCc2ccccc2-3)cc1`, the Potency was inconclusive: 15.8 µM [inhibitor, single point]. With `Cc1cc(C)cc(CC(Cc2nc3ccccc3[nH]2)c2nc3ccccc3[nH]2)c1` (stereo not drawn) the Potency was inconclusive: 22.4 µM [inhibitor, single point]. For `COc1cccc(CN2CCN(Cc3ccc(C#CC(C)(C)O)s3)CC2CCO)c1` (stereo not drawn), the Potency was inconclusive: 0.67 µM [inhibitor, full curve, poor fit]. For `C[C@H]1CCC[C@]2(C)C[C@H]3OC(=O)C(CN4CCCCCC4)[C@H]3C=C12` (stereo partly drawn), the Potency was inconclusive: 35.5 µM [inhibitor, single point]. For `Cc1ccnc(Nc2nc3ccccc3o2)n1`, the Potency was inconclusive: 16.8 µM [inhibitor, single point]. For `O=C(c1ccc2c(c1)N(Cc1c(F)cccc1Cl)C(=O)c1ccccc1S2)N1CCCC1`, the Potency was inconclusive: 39.8 µM [inhibitor, single point]. In the case of `CCOP(=O)(OCC)c1nc(-c2ccc(Cl)cc2Cl)oc1N1CCCCC1`, the Potency is reported as “inactive”. For `Cc1ccc(-c2nc(NC(=O)c3nn(C)cc3[N+](=O)[O-])sc2C)cc1`, the Potency was inconclusive: 14.1 µM [inhibitor, partial curve, poor fit]. For `Cc1cccc(C(=O)NC(NCCc2ccccc2)C(Cl)(Cl)Cl)c1` (stereo not drawn), the Potency was “inactive”. With `CCOc1ccc(CCN2C(=S)N([C@@H](Cc3ccc(O)cc3)CN3CCC[C@@H]3CN3C(=S)NC[C@@H]3CC(C)C)C[C@@H]2CC(C)C)cc1` the Potency was inconclusive: 39.8 µM [inhibitor, single point]. For `Oc1ccccc1C=NNC(=S)Nc1ccc(F)cc1`, the Potency was inconclusive: 5.62 µM [inhibitor, full curve, poor fit]. For `CCCCOc1ccc(C(=O)NCC(=O)NNC(=O)c2ccco2)cc1`, the Potency was “inactive”. With `C[C@@H]1CN([C@@H](C)CO)C(=O)c2cc(NC(=O)CCC(F)(F)F)ccc2O[C@H]1CN(C)Cc1ccc(Cl)c(Cl)c1` the Potency was inconclusive: 39.8 µM [inhibitor, single point]. For `Cc1cc(=O)c2cc(C(=O)Nc3ccc(F)cc3)ccc2[nH]1`, the Potency was “inactive”. With `CC(=O)c1cnc2ncnn2c1C` the Potency was “inactive”. With `Cc1ccc(NCc2ccccc2OCc2ccccc2F)cc1` the Potency was “inactive”. For `NC(=O)c1ccccc1NC(=O)C1CCCO1` (stereo not drawn), the Potency was “inactive”. In the case of `COc1ccc(/C=C/C(=O)Nc2ccc(C)cc2)cc1S(=O)(=O)N1CCOCC1`, the Potency is reported as inconclusive: 22.4 µM [inhibitor, partial curve, poor fit]. In the case of `CCCOC(=O)c1ccc(NC(=O)c2c(Cl)ccc(Cl)c2OC)cc1`, the Potency is reported as inconclusive: 14.1 µM [inhibitor, partial curve, poor fit]. With `CCO[C@@H]1OC(C(=O)NCc2ccccc2)=C[C@H](c2ccc(Br)cc2)[C@H]1CCCO` the Potency was inconclusive: 39.8 µM [inhibitor, partial curve, poor fit]. With `COc1ccc(C(=O)NCCc2csc(-c3ccc(Cl)cc3)n2)c(OC)c1` the Potency was inconclusive: 39.8 µM [inhibitor, single point]. For `Oc1ccc(NCc2ccccc2OCc2ccccc2)cc1`, the Potency was inconclusive: 28.2 µM [inhibitor, single point]. In the case of `O=C1c2ccccc2-[n+]2ccc3c([nH]c4ccccc43)c21`, the Potency is reported as active: 2.73 µM. With `COc1ccc(-c2n[nH]c(C)c2-c2cnn(-c3ccccc3)c2)c(O)c1C` the Potency was inconclusive: 39.8 µM [inhibitor, single point]. In the case of `COc1ccccc1C(C)Nc1nc(-c2cccnc2)nc2ccccc12` (stereo not drawn), the Potency is reported as inconclusive: 39.8 µM [inhibitor, single point]. With `CCOC(=O)Nc1sc2c(c1C#N)CCC(C)C2` (stereo not drawn) the Potency was “inactive”. For `CCN1CCN(Cc2ccc(-c3cc4c(N[C@H](C)c5ccccc5)ncnc4[nH]3)cc2)CC1`, the Potency was inconclusive: 13.7 µM [inhibitor, partial curve]. For `COCCNC(=O)C1(C)CCCN(Cc2ccc(C)c3ccccc23)C1` (stereo not drawn), the Potency was inconclusive: 31.6 µM [inhibitor, single point]. With `CCOC(=O)c1c(CSc2ccccc2)n(C)c2cc(Br)c(O)c(CN(C)C)c12` the Potency was inconclusive: 7.69 µM [inhibitor, partial curve]. For `CC(O)(CS(=O)(=O)Cc1ccccc1)C(=O)Nc1ccc(C(F)(F)F)cc1` (stereo not drawn), the Potency was “inactive”. In the case of `CC(C)CCNC(=O)Cn1c2c(c(-c3ccccc3Cl)cc1=O)CCC2`, the Potency is reported as “inactive”. With `O=C(NNC(=S)Nc1cccc(Cl)c1)c1ccccc1OC(F)F` the Potency was inconclusive: 25.1 µM [inhibitor, single point]. With `CCc1ccc(-c2nc(CS(=O)CC(=O)NCc3ccco3)c(C)o2)cc1` (stereo not drawn) the Potency was inconclusive: 5.62 µM [inhibitor, partial curve]. With `Cc1ccc2[nH]cc(C(c3ccccc3)c3ccc(Cl)s3)c2c1` (stereo not drawn) the Potency was inconclusive: 35.5 µM [inhibitor, single point]. For `O=c1cc(-c2ccccc2)nc(N2CCN(Cc3ccccc3)CC2)[nH]1`, the Potency was inconclusive: 28.2 µM [inhibitor, partial curve, poor fit].
